Data reported in the supplement of paper PMC4967469.
A lower IC50 marks a more sensitive line; a fit beyond the top or the lowest dose is shown as a bound at that dose. The AUC spans the tested range (256-fold, ending at the top dose) of the same fit; the more sensitive the line, the further below 1. For some of these results: The top dose, if marked as inferred, comes from the curve model; the source does not state it. For some of these results: Drugs with an entry number were screened twice under separate entries, and the two screens often disagree.

Tests used:
Experiment in all cases: Viability of human cancer cell lines after 72 h of drug (GDSC screen)
[1] = compound: Cc1sc2c(c1C)C(c1ccc(Cl)cc1)=N[C@@H](CC(=O)OC(C)(C)C)c1nnc(C)n1-2 [JQ1]
Protocol: (§1)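 Human cancer cell lines in 384-well plates, medium with 10% serum, drug for 72 h over a 256-fold dose range (nine 2-fold or five 4-fold steps up to the top dose). Adherent lines were fixed and stained with the nucleic acid dye Syto60, suspension lines read with resazurin; signal relative to control wells, capped at 0 and 100%. One two-parameter sigmoid per drug and line, fitted in a mixed model over all curves with the slope shared within a line.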

[2] = compound: COC(=O)[C@H](CCSC)NC(=O)c1ccc(NC[C@@H](N)CS)cc1-c1ccccc1 [FTI-277]; settings: top dose 1.024 µM; top dose inferred
Protocol: as §1

[3] = compound: CN1CCN(c2ccc([N+](=O)[O-])c3no[n+]([O-])c23)CC1 [NSC-207895]; settings: top dose 20 µM; top dose inferred
Protocol: as §1

[4] = compound: COCC[n+]1c2c(n(Cc3cnccn3)c1C)C(=O)c1ccccc1C2=O [YM155]; settings: top dose 5.12 µM
Protocol: as §1

[5] = compound: O=C(/C=C/c1cccc(S(=O)(=O)Nc2ccccc2)c1)NO [Belinostat]; settings: top dose 20 µM; top dose inferred
Protocol: as §1

[6] = compound: CC(=O)O[C@@]12CO[C@@H]1C[C@H](O)[C@@]1(C)C(=O)[C@H](O)C3=C(C)[C@@H](OC(=O)[C@H](O)[C@@H](NC(=O)OC(C)(C)C)c4ccccc4)C[C@@](O)([C@@H](OC(=O)c4ccccc4)[C@H]21)C3(C)C [Docetaxel]; settings: top dose 0.0125 µM
Protocol: as §1

[7] = compound: CCOc1nc(NC(=O)Cc2cc(OC)ccc2OC)cc(N)c1C#N [JNK Inhibitor VIII]; settings: top dose 10 µM; top dose inferred
Protocol: as §1

[8] = compound: Cc1ccc(C(=O)N(CCCN)[C@@H](c2nc3cc(Cl)ccc3c(=O)n2Cc2ccccc2)C(C)C)cc1 [SB-715992]; settings: top dose 0.128 µM; top dose inferred
Protocol: as §1

[9] = compound: c1ccc2c(CCNc3ccc(Nc4ccncc4)cc3)c[nH]c2c1 [JNJ-26854165]; settings: top dose 10 µM
Protocol: as §1

[10] = compound: C[C@]1(O)C[C@@H](c2nc(-c3ccc4ccc(-c5ccccc5)nc4c3)c3c(N)nccn32)C1 [OSI-906]; settings: top dose 2.56 µM; top dose inferred
Protocol: as §1

[11] = compound: CC1(C)CNc2cc(NC(=O)c3cccnc3NCc3ccncc3)ccc21 [AMG-706]; settings: top dose 2 µM; top dose inferred
Protocol: as §1

[12] = top dose 1 µM, screen: GDSC drug entry 1218, top dose inferred
[13] = top dose 2.56 µM, screen: GDSC drug entry 163

Cell Line | AUC [1, 12] | IC50 [1, 12] [nM] | AUC [1, 13] | IC50 [1, 13] [nM] | AUC [2] | IC50 [2] [nM] | AUC [3] | IC50 [3] [nM] | AUC [4] | IC50 [4] [nM] | AUC [5] | IC50 [5] [nM] | AUC [6] | IC50 [6] [nM] | AUC [7] | IC50 [7] [nM] | AUC [8] | IC50 [8] [nM] | AUC [9] | IC50 [9] [nM] | AUC [10] | IC50 [10] [nM] | AUC [11] | IC50 [11] [nM]
KYM-1 (rhabdomyosarcoma, adherent) | 0.952 | > 1000 | 0.692 | 503 | 0.988 | > 1020 | 0.591 | 2130 | 0.018 | < 20 | 0.509 | 1320 | 0.622 | 1.61 | 0.987 | > 10000 | 0.923 | > 128 | 0.824 | 4830 | 0.99 | > 2560 | 0.987 | > 2000
KYSE-50 (oesophagus, adherent) | 0.989 | > 1000 | 0.39 | 82.1 | 0.981 | > 1020 | 0.881 | 17800 | 0.064 | < 20 | 0.397 | 668 | 0.684 | 2.43 | 0.99 | > 10000 | 0.791 | 52.3 | 0.863 | 7450 | 0.702 | 557 | 0.981 | > 2000
KYSE-140 (oesophagus, adherent) |  |  | 0.754 | 964 | 0.983 | > 1020 | 0.983 | > 20000 | 0.983 | > 5120 | 0.98 | > 20000 | 0.684 | 2.76 | 0.891 | > 10000 | 0.775 | 57.4 | 0.823 | 6920 | 0.959 | > 2560 | 0.948 | > 2000
KYSE-150 (oesophagus, adherent) | 0.988 | > 1000 | 0.52 | 181 | 0.969 | > 1020 | 0.883 | 19900 | 0.049 | < 20 | 0.76 | 6800 | 0.812 | 6.34 | 0.988 | > 10000 | 0.942 | > 128 | 0.885 | > 10000 | 0.914 | > 2560 | 0.989 | > 2000
KYSE-220 (oesophagus, adherent) | 0.984 | > 1000 | 0.648 | 421 | 0.981 | > 1020 | 0.878 | > 20000 | 0.034 | < 20 | 0.559 | 1830 | 0.567 | 1.21 | 0.981 | > 10000 | 0.931 | > 128 | 0.785 | 4530 | 0.912 | > 2560 | 0.978 | > 2000
KYSE-410 (oesophagus, adherent) |  |  | 0.516 | 177 | 0.982 | > 1020 | 0.848 | 16500 | 0.147 | 23.1 | 0.603 | 2450 | 0.638 | 1.93 | 0.967 | > 10000 | 0.833 | 90.5 | 0.862 | 9500 | 0.937 | > 2560 | 0.969 | > 2000
KYSE-520 (oesophagus, adherent) | 0.978 | > 1000 | 0.713 | 796 | 0.966 | > 1020 | 0.881 | > 20000 | 0.099 | < 20 | 0.594 | 2480 | 0.808 | 9.38 | 0.964 | > 10000 | 0.963 | > 128 | 0.823 | 8800 | 0.929 | > 2560 | 0.948 | > 2000
LK-2 (lung squamous cell carcinoma, adherent) | 0.979 | > 1000 | 0.941 | > 2560 | 0.981 | > 1020 | 0.962 | > 20000 | 0.033 | < 20 | 0.313 | 388 | 0.639 | 1.84 | 0.989 | > 10000 | 0.733 | 35.2 | 0.935 | > 10000 | 0.945 | > 2560 | 0.962 | > 2000
LN-18 (glioma, adherent) | 0.993 | > 1000 | 0.668 | 422 | 0.989 | > 1020 | 0.994 | > 20000 | 0.092 | 21.9 | 0.616 | 2430 | 0.863 | 7.6 | 0.961 | > 10000 | 0.989 | > 128 | 0.953 | > 10000 | 0.992 | > 2560 | 0.963 | > 2000
LOU-NH91 (lung squamous cell carcinoma, adherent) | 0.963 | > 1000 | 0.824 | 1710 | 0.961 | > 1020 | 0.978 | > 20000 | 0.15 | 23.1 | 0.501 | 1260 | 0.641 | 1.99 | 0.966 | > 10000 | 0.949 | > 128 | 0.906 | > 10000 | 0.923 | > 2560 | 0.938 | > 2000
M059J (glioma, adherent) | 0.983 | > 1000 | 0.574 | 259 | 0.935 | > 1020 | 0.977 | > 20000 | 0.032 | < 20 | 0.449 | 896 | 0.676 | 2.54 | 0.958 | > 10000 | 0.774 | 54.8 | 0.831 | 7110 | 0.985 | > 2560 | 0.979 | > 2000
MEL-JUSO (melanoma, adherent) | 0.982 | > 1000 | 0.804 | 1460 | 0.656 |  | 0.736 | 6470 | 0.03 | < 20 | 0.399 | 636 | 0.811 | 7.62 | 0.98 | > 10000 | 0.71 | 33.9 | 0.882 | > 10000 | 0.729 | 784 | 0.924 | > 2000
MFE-280 (endometrium, adherent) | 0.934 | > 1000 | 0.867 | > 2560 | 0.979 | > 1020 | 0.942 | > 20000 | 0.041 | < 20 | 0.431 | 772 | 0.961 | > 12.5 | 0.977 | > 10000 | 0.917 | > 128 | 0.977 | > 10000 | 0.981 | > 2560 | 0.976 | > 2000
MFE-296 (endometrium, adherent) | 0.981 | > 1000 | 0.747 | 868 | 0.982 | > 1020 | 0.861 | 19100 | 0.137 | 20.5 | 0.823 | 13000 | 0.657 | 2.2 | 0.962 | > 10000 | 0.927 | > 128 | 0.951 | > 10000 | 0.982 | > 2560 | 0.966 | > 2000
MG-63 (osteosarcoma, adherent) | 0.971 | > 1000 | 0.423 | 95.5 | 0.95 | > 1020 | 0.981 | > 20000 | 0.814 | 3370 | 0.984 | > 20000 | 0.609 | 1.64 | 0.971 | > 10000 | 0.98 | > 128 | 0.839 | 8460 | 0.941 | > 2560 | 0.893 | > 2000
MOG-G-CCM (glioma, adherent) | 0.981 | > 1000 | 0.529 | 194 | 0.941 | > 1020 | 0.89 | > 20000 | 0.212 | 38.6 | 0.347 | 437 | 0.409 | 0.422 | 0.958 | > 10000 | 0.793 | 69.8 | 0.881 | > 10000 | 0.981 | > 2560 | 0.896 | > 2000
MOG-G-UVW (glioma, adherent) | 0.983 | > 1000 | 0.662 | 445 | 0.975 | > 1020 | 0.892 | > 20000 | 0.024 | < 20 | 0.313 | 381 | 0.332 | 0.269 | 0.965 | > 10000 | 0.857 | 99.4 | 0.876 | 9450 | 0.975 | > 2560 | 0.974 | > 2000
MS751 (cervix, adherent) | 0.83 | 562 | 0.651 | 405 | 0.99 | > 1020 | 0.909 | > 20000 | 0.14 | 27.2 | 0.68 | 3810 | 0.612 | 1.54 | 0.985 | > 10000 | 0.914 | > 128 | 0.959 | > 10000 | 0.987 | > 2560 | 0.972 | > 2000
NCI-H28 (mesothelioma, adherent) | 0.977 | > 1000 | 0.809 | 1890 | 0.959 | > 1020 | 0.908 | > 20000 | 0.333 | 94.3 | 0.865 | > 20000 | 0.735 | 4.6 | 0.981 | > 10000 | 0.975 | > 128 | 0.827 | 8880 | 0.891 | > 2560 | 0.972 | > 2000
NCI-H596 (lung adenocarcinoma, adherent) | 0.96 | > 1000 | 0.638 | 434 | 0.98 | > 1020 | 0.979 | > 20000 | 0.194 | 28.7 | 0.467 | 992 | 0.817 | 9.74 | 0.975 | > 10000 | 0.889 | > 128 | 0.904 | > 10000 | 0.982 | > 2560 | 0.982 | > 2000
NCI-H841 (small cell lung carcinoma, adherent) | 0.987 | > 1000 | 0.949 | > 2560 | 0.987 | > 1020 | 0.833 | 13000 | 0.054 | < 20 | 0.577 | 2030 | 0.678 | 2.45 | 0.963 | > 10000 | 0.633 | 18.7 | 0.932 | > 10000 | 0.986 | > 2560 | 0.979 | > 2000
NCI-H1048 (small cell lung carcinoma, adherent) | 0.989 | > 1000 | 0.961 | > 2560 | 0.982 | > 1020 | 0.867 | 15000 | 0.021 | < 20 | 0.506 | 1290 | 0.69 | 2.49 | 0.989 | > 10000 | 0.725 | 32.3 | 0.906 | > 10000 | 0.99 | > 2560 | 0.987 | > 2000
